Assay results from PubChem BioAssay (Tox21).
Inconclusive results, whose numbers are uncertain, are shown with a selection of clear calls. For some assays here: Potencies of inconclusive entries are doubtful fits and often do not repeat. The source made the active and inactive calls. Unless noted, calls follow the shape of the dose curve; as a rule, active = well fitted curve in the direction sought with a large enough effect in the repeat runs; inconclusive = weak or mixed curves; inactive = no such curve, though single readings can be large; an effect the other way counts as inactive or inconclusive.

Key:
[1] = qHTS assay for small molecule agonists of the p53 signaling pathway (AID 651631; calls by dose curve; also: nearly all actives have a fitted effect of over 15% in size; also: potency is read from the fitted curve at half-maximal effect; as to activation: % is scaled to controls: 0 for no effect and ±100 for the full control effect); details: HCT-116 p53RE-bla reporter, beta-lactamase FRET ratio, 16 h; activation: at 73.3 µM (top of the series) unless noted
In short: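 Beta-lactamase reporter activity under p53 response elements was quantified in HCT-116 cells by FRET fluorescence, following 16 h incubation with test compounds at 37 °C and 2 h substrate development at room temperature.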

[2] = qHTS assay for small molecule disruptors of the mitochondrial membrane potential (AID 720635); details: HepG2 mitochondrial membrane potential, Mito-MPS dye ratio; ratio activity, negative = MMP loss: at 83.2 µM (top of the series) unless noted; also: potency is read from the fitted curve at half-maximal effect; as to ratio activity, negative = MMP loss: % is scaled to controls: 0 for no effect and ±100 for the full control effect
In short: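 HepG2 cells exposed to compound 1 hr at 37C, then Mito-MPS dye 30 min. Ratio read of aggregate (540/590 nm) versus monomer (490/535 nm) fluorescence.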

[3] = target: Glucocorticoid receptor (Homo sapiens) (UniProt P04150); assay: qHTS assay to identify small molecule antagonists of the glucocorticoid receptor (GR) signaling pathway (AID 720692; active = well fitted inhibition curve with a large enough effect in the signal ratio in the repeat runs, not every such curve was filed as active; inconclusive = weak or mixed curves, or effect the other way; inactive = no such curve, though single readings can be large or run the other way; the % refers to the signal ratio; also: potency is read from the fitted curve at half-maximal effect; as to activity change, negative = inhibition: % is scaled to controls: 0 for no effect and ±100 for the full control effect); details: GR-bla HeLa, beta-lactamase FRET ratio, dexamethasone-stimulated, 18 h; activity change, negative = inhibition: at 58.5 µM (top of the series) unless noted
In short: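 HeLa GR-bla cells; cmpd + dex 5 nM final, 18 h 37 C; LiveBLAzer B/G FRET substrate 2 h RT; fluorescence intensity read. Antagonist mode, qHTS.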

[4] = qHTS assay for identifying genotoxic compounds that show differential cytotoxicity against isogenic chicken DT40 cell lines with known DNA damage response pathways - wild type cell line (AID 743012); details: DT40 wild type chicken cells viability, CellTiter-Glo, 40 h; activity change, negative = cytotoxicity: at 68.4 µM (top of the series) unless noted; also: nearly all actives have a fitted effect of over 60% in size; also: potency is read from the fitted curve at half-maximal effect
In short: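 Wild type DT40, 300 cells/well, ~0.5 h settle at 37 C/5% CO2; compounds in DMSO added by pintool; 40 h at 37 C/5% CO2; CellTiter-Glo, 30 min RT; luminescence.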

[5] = qHTS assay for identifying genotoxic compounds that show differential cytotoxicity against isogenic chicken DT40 cell lines with known DNA damage response pathways - Rad54/Ku70 mutant cell line (AID 743015); details: DT40 Rad54/Ku70 mutant viability, CellTiter-Glo, 40 h; activity change, negative = cytotoxicity: at 66.8 µM (top of the series); also: nearly all actives have a fitted effect of over 60% in size; also: potency is read from the fitted curve at half-maximal effect
[6] = qHTS assay to identify small molecule antagonists of the thyroid receptor (TR) signaling pathway - cell viability counter screen (AID 743064); details: GH3.TRE-Luc viability, CellTiter-Fluor, 24 h; activity change, negative = cytotoxic: at 70.3 µM (top of the series) unless noted; also: nearly all actives have a fitted effect of over 50% in size; also: potency is read from the fitted curve at half-maximal effect
In short: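 CellTiter-Fluor readout, 30 min at 37 °C/5% CO2, following 23.5 h incubation of GH3.TRE-Luc cells with test compound and 1 nM T3 (final).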

[7] = qHTS assay for small molecule agonists of the antioxidant response element (ARE) signaling pathway (AID 743202; active = well fitted activation curve with a large enough effect in the signal ratio in the repeat runs, not every such curve was filed as active; inconclusive = weak or mixed curves, or effect the other way; inactive = no such curve, though single readings can be large or run the other way; the % refers to the signal ratio; also: % is scaled to controls: 0 for no effect and ±100 for the full control effect); details: HepG2 ARE-bla reporter, beta-lactamase FRET, 16 h; activation: at 73.3 µM (top of the series) unless noted
In short: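 Agonist mode reporter screen: HepG2 cells with ARE-controlled beta-lactamase are incubated with test compounds for 16 h at 37 C, and beta-lactamase activity is measured as fluorescence of cleaved B/G FRET substrate.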

[8] = qHTS assay to identify small molecule antagonists of the peroxisome proliferator-activated receptor delta (PPARd) signaling pathway - cell viability counter screen (AID 743213); details: PPARd-bla HEK293H viability, CellTiter-Glo luminescence, 17 h; viability change, negative = cytotoxic: at 62 µM (top of the series) unless noted; also: nearly all actives have a fitted effect of over 50% in size; also: potency is read from the fitted curve at half-maximal effect
In short: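 In this counter screen, HEK293H cells carrying a UAS-beta-lactamase reporter are co-treated with test compounds and 300 nM L165041 (final) for 17 h at 37 C; cell viability is quantified by CellTiter-Glo luminescence.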

[9] = target: Cytochrome P450 2C19 (Homo sapiens) (UniProt P33261); assay: Cytochrome P450 Family 2 Subfamily C Member 19 (CYP2C19) small molecule antagonists: luciferase reporter qHTS assay (AID 1671197); also: % is scaled to controls: 0 for no effect and ±100 for the full control effect; nearly all actives have a fitted effect of over 65% in size
In short: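 First, compounds are pinned into enzyme-substrate mix and held 10 min at room temperature. Second, NADPH regeneration solution is added and plates incubate 1 h at 37C. Third, detection reagent is added and luminescence read after 20 min.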

[10] = target: Cytochrome P450 2C9 (Homo sapiens) (UniProt P11712); assay: Cytochrome P450 Family 2 Subfamily C Member 9 (CYP2C9) small molecule antagonists: luciferase reporter qHTS assay (AID 1671198); also: nearly all actives have a fitted effect of over 50% in size; also: potency is read from the fitted curve at half-maximal effect
In short: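 P450-Glo proluciferin substrate with CYP2C9 enzyme; 10 min RT preincubation, then NADPH regeneration 1 h at 37C; luciferin detection reagent 20 min RT, luminescence in relative luminescence units.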

[11] = target: Cytochrome P450 1A2 (Homo sapiens) (UniProt P05177); assay: Cytochrome P450 Family 1 Subfamily A Member 2 (CYP1A2) small molecule antagonists: luciferase reporter qHTS assay (AID 1671199); also: nearly all actives have a fitted effect of over 50% in size; also: potency is read from the fitted curve at half-maximal effect
In short: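 P450-Glo CYP1A2, 1536-well qHTS: enzyme/proluciferin substrate + cpd (DMSO), 10 min RT; NADPH regen, 1 h RT; detection reagent, 20 min; luminescence, RLU.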

[12] = target: Cytochrome P450 2D6 (Homo sapiens) (UniProt P10635); assay: Cytochrome P450 Family 2 Subfamily D Member 6 (CYP2D6) small molecule antagonists: luciferase reporter qHTS assay (AID 1671196); also: nearly all actives have a fitted effect of over 50% in size; also: potency is read from the fitted curve at half-maximal effect
In short: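 Read-out is luminescence from luciferin formed by CYP2D6 turnover of a proluciferin substrate, recorded as relative luminescence units. Reactions ran 1 h at room temperature after NADPH regeneration solution was added.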

[13] = qHTS assay to identify small molecule antagonists of the androgen receptor (AR) signaling pathway - cell viability counter screen (AID 743033; also: potency is read from the fitted curve at half-maximal effect; nearly all actives have a fitted effect of over 45% in size)
[14] = qHTS assay to identify small molecule antagonists of the estrogen receptor alpha (ER-alpha) signaling pathway - cell viability counter screen (AID 743074; calls by dose curve;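 also: HEK293 cells carrying ER-alpha-UAS-bla reporter stimulated with 17beta-estradiol; potency is read from the fitted curve at half-maximal effect; nearly all actives have a fitted effect of over 45% in size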)
[15] = target: Peroxisome proliferator-activated receptor gamma (Homo sapiens) (UniProt P37231); assay: qHTS assay to identify small molecule antagonists of the peroxisome proliferator-activated receptor gamma (PPARg) signaling pathway (AID 743191; calls by dose curve; also: % is scaled to controls: 0 for no effect and ±100 for the full control effect; nearly all actives have a fitted effect of over 30% in size); details: HEK293H PPARg-UAS-bla, beta-lactamase ratio, antagonist, 17 h; ratio activity, negative = inhibition: at 62.6 µM (top of the series) unless noted
In short: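 GeneBLAzer PPARg UAS-bla HEK293H cells, 5 h post-plating, exposed to compounds 17 h at 37C. LiveBLAzer B/G FRET substrate added for 1 h at room temperature; beta-lactamase reporter read by fluorescence intensity.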

[16] = qHTS assay to identify small molecule phospholipidosis (PLD) inducers (AID 1259344; active = well fitted curve in the direction sought with a large enough effect; inconclusive = small, poorly fitted or top-dose-only effect, or another doubt; inactive = no such curve, though single readings can be large; an effect the other way counts as inactive or inconclusive; also: potency is read from the fitted curve at half-maximal effect)
In short: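 Quantitative HTS in HepG2: compound plus LipidTOX Red dye for 24 h, paraformaldehyde fixation with Hoechst 33342, widefield high-content imaging; amiodarone as positive and DMSO as negative control.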

[17] = qHTS assay for identifying genotoxic compounds that show differential cytotoxicity against isogenic chicken DT40 cell lines with known DNA damage response pathways - Rev3 mutant cell line (AID 743014); details: chicken DT40 Rev3-/- viability, CellTiter-Glo, 40 h; activity, negative = cytotoxicity: at 68.4 µM (top of the series); also: nearly all actives have a fitted effect of over 55% in size; also: potency is read from the fitted curve at half-maximal effect
[18] = target: Estrogen receptor (Homo sapiens) (UniProt P03372); assay: qHTS assay to identify small molecule agonists of the estrogen receptor alpha (ER-alpha) signaling pathway using the BG1 cell line (AID 743079); details: BG1Luc4E2 cells, ERE-luciferase agonist, 22 h; activation: at 70.3 µM (top of the series) unless noted; also: potency is read from the fitted curve at half-maximal effect; nearly all actives have a fitted effect of over 20% in size
[19] = target: Peroxisome proliferator-activated receptor gamma (Homo sapiens) (UniProt P37231); assay: qHTS assay to identify small molecule agonists of the peroxisome proliferator-activated receptor gamma (PPARg) signaling pathway (AID 743094; active = well fitted activation curve with a large enough effect in the signal ratio in the repeat runs, not every such curve was filed as active; inconclusive = weak or mixed curves, or effect the other way; inactive = no such curve, though single readings can be large or run the other way; the % refers to the signal ratio; also: potency is read from the fitted curve at half-maximal effect); details: HEK293H PPARg-UAS-bla, beta-lactamase FRET ratio, 17 h; activation: at 57 µM (top of the series) unless noted
In short: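 Beta-lactamase FRET fluorescence was the read-out after a 1 h room-temperature substrate step, following 17 h compound treatment at 37C of HEK293H cells expressing a UAS-driven bla reporter responsive to PPARg.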
Tags tell the direction and shape of the fitted curve or compound fluorescence and quenching.

UniProt P37231, sequence (P37231 whole entry, looked up): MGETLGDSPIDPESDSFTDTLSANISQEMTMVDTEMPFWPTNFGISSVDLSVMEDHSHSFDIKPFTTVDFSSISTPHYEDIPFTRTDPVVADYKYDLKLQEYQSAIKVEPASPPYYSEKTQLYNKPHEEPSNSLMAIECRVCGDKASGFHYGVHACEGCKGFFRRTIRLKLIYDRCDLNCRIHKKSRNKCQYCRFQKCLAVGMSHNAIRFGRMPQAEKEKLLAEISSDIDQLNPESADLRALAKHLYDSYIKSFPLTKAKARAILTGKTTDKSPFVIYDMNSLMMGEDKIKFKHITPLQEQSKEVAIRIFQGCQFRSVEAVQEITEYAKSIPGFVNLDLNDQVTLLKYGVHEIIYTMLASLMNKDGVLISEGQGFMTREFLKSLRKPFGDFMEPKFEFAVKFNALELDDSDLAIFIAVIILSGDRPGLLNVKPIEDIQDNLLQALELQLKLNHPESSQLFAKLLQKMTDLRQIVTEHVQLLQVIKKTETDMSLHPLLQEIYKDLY
UniProt P04150, sequence (P04150 whole entry, looked up): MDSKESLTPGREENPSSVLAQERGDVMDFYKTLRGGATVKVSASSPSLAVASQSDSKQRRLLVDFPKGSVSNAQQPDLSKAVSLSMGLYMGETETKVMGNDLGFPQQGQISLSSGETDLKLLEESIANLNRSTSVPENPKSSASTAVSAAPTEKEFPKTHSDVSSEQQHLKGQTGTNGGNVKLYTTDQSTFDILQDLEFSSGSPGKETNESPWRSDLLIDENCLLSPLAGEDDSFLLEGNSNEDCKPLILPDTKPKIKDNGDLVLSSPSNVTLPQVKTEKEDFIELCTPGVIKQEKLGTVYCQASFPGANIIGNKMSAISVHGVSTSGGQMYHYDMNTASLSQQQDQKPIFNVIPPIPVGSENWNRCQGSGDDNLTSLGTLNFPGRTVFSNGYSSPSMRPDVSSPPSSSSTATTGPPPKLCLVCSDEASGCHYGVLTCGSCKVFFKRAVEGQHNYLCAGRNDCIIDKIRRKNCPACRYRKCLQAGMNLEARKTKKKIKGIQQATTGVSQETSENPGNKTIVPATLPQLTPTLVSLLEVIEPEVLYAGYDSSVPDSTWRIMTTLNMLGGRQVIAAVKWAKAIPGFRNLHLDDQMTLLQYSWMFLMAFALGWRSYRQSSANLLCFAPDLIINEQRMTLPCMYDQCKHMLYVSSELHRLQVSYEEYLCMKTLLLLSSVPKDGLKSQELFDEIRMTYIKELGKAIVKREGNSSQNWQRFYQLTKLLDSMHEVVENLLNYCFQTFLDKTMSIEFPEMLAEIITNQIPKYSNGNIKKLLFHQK
UniProt P11712, sequence (P11712 whole entry, looked up): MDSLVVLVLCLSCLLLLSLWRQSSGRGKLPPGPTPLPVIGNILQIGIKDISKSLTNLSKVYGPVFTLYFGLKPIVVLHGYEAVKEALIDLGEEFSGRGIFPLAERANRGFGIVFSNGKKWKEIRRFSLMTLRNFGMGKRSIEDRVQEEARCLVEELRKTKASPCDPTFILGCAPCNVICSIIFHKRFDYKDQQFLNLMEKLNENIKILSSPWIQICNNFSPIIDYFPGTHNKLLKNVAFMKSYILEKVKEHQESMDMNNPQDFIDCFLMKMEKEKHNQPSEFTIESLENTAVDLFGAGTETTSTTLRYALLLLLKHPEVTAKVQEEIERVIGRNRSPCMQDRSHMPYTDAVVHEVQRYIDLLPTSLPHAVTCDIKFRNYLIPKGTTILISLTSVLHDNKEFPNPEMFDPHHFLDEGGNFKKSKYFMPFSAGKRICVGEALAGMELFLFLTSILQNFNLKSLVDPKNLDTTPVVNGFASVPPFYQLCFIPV
UniProt P03372, sequence (P03372 whole entry, looked up): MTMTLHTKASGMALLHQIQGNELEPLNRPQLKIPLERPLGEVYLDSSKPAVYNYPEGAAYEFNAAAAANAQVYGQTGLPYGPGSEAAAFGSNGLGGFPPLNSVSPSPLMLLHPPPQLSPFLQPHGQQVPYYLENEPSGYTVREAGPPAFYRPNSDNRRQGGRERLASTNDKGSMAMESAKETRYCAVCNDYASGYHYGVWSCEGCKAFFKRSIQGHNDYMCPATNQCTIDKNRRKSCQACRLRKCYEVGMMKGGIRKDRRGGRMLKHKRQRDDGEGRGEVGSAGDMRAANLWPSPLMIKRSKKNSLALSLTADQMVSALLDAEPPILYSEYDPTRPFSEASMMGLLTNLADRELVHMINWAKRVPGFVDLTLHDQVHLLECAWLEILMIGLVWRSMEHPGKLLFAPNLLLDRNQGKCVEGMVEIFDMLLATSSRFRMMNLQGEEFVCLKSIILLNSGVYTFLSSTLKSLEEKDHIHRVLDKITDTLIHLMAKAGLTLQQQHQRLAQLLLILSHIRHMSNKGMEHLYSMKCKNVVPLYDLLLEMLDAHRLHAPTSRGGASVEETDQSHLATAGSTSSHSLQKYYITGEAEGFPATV
UniProt P05177, sequence (P05177 whole entry, looked up): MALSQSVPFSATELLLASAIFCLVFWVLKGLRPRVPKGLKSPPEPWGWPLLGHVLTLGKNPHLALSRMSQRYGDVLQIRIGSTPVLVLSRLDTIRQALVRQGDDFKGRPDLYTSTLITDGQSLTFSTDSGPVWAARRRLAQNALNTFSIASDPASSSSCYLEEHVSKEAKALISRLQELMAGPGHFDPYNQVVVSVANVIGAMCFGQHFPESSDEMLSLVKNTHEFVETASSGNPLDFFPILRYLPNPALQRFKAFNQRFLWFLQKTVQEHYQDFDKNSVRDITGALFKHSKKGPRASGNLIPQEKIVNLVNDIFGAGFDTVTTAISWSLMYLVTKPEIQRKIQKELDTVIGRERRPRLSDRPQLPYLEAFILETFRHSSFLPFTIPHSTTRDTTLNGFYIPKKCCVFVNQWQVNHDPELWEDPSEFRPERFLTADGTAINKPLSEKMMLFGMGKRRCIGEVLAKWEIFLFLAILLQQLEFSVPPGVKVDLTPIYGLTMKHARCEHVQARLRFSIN
UniProt P33261, sequence (P33261 whole entry, looked up): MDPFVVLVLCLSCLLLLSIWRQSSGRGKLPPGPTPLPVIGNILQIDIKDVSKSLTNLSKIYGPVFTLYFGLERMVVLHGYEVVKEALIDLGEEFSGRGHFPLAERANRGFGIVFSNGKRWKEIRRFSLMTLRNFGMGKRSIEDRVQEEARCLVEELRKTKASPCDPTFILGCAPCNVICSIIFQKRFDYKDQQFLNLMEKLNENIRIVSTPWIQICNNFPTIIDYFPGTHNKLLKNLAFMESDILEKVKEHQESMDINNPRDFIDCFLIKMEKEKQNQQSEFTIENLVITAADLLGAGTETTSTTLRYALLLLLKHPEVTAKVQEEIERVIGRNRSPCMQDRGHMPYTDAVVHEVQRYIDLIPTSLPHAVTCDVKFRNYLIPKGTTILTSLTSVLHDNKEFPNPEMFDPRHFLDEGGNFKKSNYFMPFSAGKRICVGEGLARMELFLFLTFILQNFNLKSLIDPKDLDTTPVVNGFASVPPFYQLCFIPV
UniProt P10635, sequence (P10635 whole entry, looked up): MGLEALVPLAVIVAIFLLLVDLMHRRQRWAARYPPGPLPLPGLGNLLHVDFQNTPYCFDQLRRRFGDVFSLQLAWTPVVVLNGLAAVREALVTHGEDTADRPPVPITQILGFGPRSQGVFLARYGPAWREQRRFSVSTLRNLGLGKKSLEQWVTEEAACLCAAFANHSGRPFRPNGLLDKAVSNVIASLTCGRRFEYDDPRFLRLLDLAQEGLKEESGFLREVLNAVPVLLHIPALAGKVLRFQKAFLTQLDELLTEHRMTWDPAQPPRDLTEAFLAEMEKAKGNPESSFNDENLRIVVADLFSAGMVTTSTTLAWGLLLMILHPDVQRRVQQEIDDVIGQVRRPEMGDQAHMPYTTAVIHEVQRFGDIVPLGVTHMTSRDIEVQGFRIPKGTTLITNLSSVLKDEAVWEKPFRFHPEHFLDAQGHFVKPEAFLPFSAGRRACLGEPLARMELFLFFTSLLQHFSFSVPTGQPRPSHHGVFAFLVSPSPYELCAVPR

## Cc1nc(N)nc(N)n1
[1]
  Potency: inactive
[2]
  ratio activity, negative = MMP loss: inconclusive: 22.8% [at 95.3 µM]
[3]
  activity change, negative = inhibition: inconclusive: 7.08% [at 78.9 µM]
[4]
  Potency: inactive
[5]
  Potency: inactive
[6]
  Potency: inactive
[7]
  activation: inconclusive: -16.2% [at 94.8 µM]
[8]
  Potency: inconclusive: 1.13 µM [cytotoxic, single point]
[9]
  Potency: inactive
[10]
  Potency: inactive
[11]
  Potency: inactive

## C[N+](=O)[O-]
[2]
  Potency: inactive
[3]
  activity change, negative = inhibition: inconclusive: 6.18%
[7]
  activation: inconclusive: 36.1%
[12]
  Potency: inactive
[10]
  Potency: inactive
[11]
  Potency: inconclusive: 71 µM [inhibitor]

## c1ccccc1
[2]
  ratio activity, negative = MMP loss: inconclusive: 29.5%
[6]
  Potency: inactive

## O=S(=O)(O)c1cc(O)ccc1O
[2]
  Potency: inactive
[3]
  activity change, negative = inhibition: inconclusive: 2.99% [at 27 µM]
[5]
  Potency: inconclusive: 54.5 µM [cytotoxic, partial curve, poor fit]
[13]
  Potency: inconclusive: 0.6 nM [cytotoxic]

## CC[C@H](N)c1ccccc1
[2]
  Potency: inconclusive: 8.63 µM [activator, partial curve, poor fit]
[14]
  Potency: inconclusive: 21.9 µM [rising, single point]
[7]
  Potency: inactive
[10]
  Potency: inconclusive: 50.3 µM [inhibitor, partial curve, poor fit]
[11]
  Potency: inconclusive: 39.9 µM [inhibitor]

## C=CCCC#N
[3]
  Potency: inactive
[15]
  ratio activity, negative = inhibition: inconclusive: 4.78%
[11]
  Potency: inconclusive: 38.9 µM [inhibitor, partial curve]

## O=C1C[C@@H]2OCC=C3CN4CC[C@]56c7ccccc7N1[C@H]5[C@H]2[C@H]3C[C@H]46 (tested in a mixture with another compound)
[1]
  Potency: inconclusive: 0.668 µM [falling, single point]
[6]
  Potency: inactive
[16]
  Potency: inactive

## CC(=O)O[C@H]1C[C@H](O[C@H]2[C@@H](O)C[C@H](O[C@H]3[C@@H](O)C[C@H](OC4CC[C@@]5(C)C(CC[C@@H]6[C@@H]5CC[C@]5(C)[C@@H](C7=CC(=O)OC7)[C@@H](O)C[C@]65O)C4)O[C@@H]3C)O[C@@H]2C)O[C@H](C)[C@H]1O[C@@H]1O[C@H](CO)[C@@H](O)[C@H](O)[C@H]1O (stereo partly drawn)
[1]
  Potency: inconclusive: 0.298 µM [activator]
[17]
  Potency: active: 2.66 µM
[13]
  Potency: active: 601 nM
[14]
  Potency: active: 0.379 µM
[18]
  Potency: inconclusive: 2110 nM [inhibitor, full curve]
[19]
  Potency: inconclusive: 9.52 µM [fluorescent, partial curve]
[16]
  Potency: inconclusive: 15.8 µM [activator, partial curve, poor fit]

## CCc1ccccc1C
[9]
  Potency: inactive

## O=P(O)(O)c1ccccc1
[4]
  Potency: inconclusive: 19.3 µM [rising, full curve, poor fit]
[17]
  Potency: inactive
[12]
  Potency: inconclusive: 12.6 µM [inhibitor, full curve]

## CO[C@H]1[C@@H](O)C[C@H](O[C@H]2[C@@H](O)C[C@H](O[C@H]3[C@@H](O)C[C@H](O[C@H]4CC[C@@]5(C)[C@H](CC[C@@H]6[C@@H]5C[C@@H](O)[C@]5(C)[C@@H](C7=CC(=O)OC7)CC[C@]65O)C4)O[C@@H]3C)O[C@@H]2C)O[C@@H]1C
[1]
  Potency: inconclusive: 6.68 µM [cytotoxic, full curve]
[2]
  Potency: active: 0.699 µM
[13]
  Potency: inconclusive: 120 nM [cytotoxic, full curve, poor fit]
[14]
  Potency: inconclusive: 0.0756 µM [cytotoxic, full curve]
[18]
  Potency: inconclusive: 422 nM [inhibitor, full curve]
[19]
  Potency: inconclusive: 0.338 µM [fluorescent, full curve]
[16]
  Potency: inconclusive: 1 µM [activator, full curve, poor fit]

## CCCCCCCC(=O)Cl
[2]
  Potency: inactive
[15]
  Potency: inactive
[8]
  Potency: inactive
[10]
  Potency: inconclusive: 71.6 µM [inhibitor, partial curve]
[11]
  Potency: inactive

## C#C[C@]1(OC(=O)CCCCCC)CC[C@H]2[C@@H]3CCC4=CC(=O)CC[C@@H]4[C@H]3CC[C@@]21C
[1]
  Potency: inconclusive: 33.5 µM [cytotoxic]
[2]
  Potency: active: 8.41 µM
[3]
  Potency: inconclusive: 26.8 µM [cytotoxic]
[17]
  Potency: active: 5.96 µM
[5]
  Potency: active: 5.96 µM
[6]
  Potency: active: 11.9 µM
[14]
  Potency: active: 19 µM
[18]
  Potency: active: 596 nM
[16]
  Potency: inconclusive: 14.1 µM [activator, single point]

## N#C/C=C/c1ccccc1
[9]
  Potency: inactive
[10]
  Potency: inactive
